# Test results from the supplement of paper PMC11417369.
# The list shows a part of the results.
# Tested on: PF3D7_0420300 AP2 domain 1 (GST-tagged)
# Assay: gcPBM binding intensity (ln(normalized median fluorescence intensity)); higher = stronger DNA binding
# How it was run: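 Probes on an Agilent 4 × 180k array were primer-extended, double-stranded and 36 bp long, taken from intergenic genomic regions, with negative controls added. GST-tagged P. falciparum DNA-binding domains from E. coli, about 25 μg on average, were applied to the array for 1 h in 1× PBS containing 1% milk, 0.2 mg/ml BSA, 0.5% salmon testes DNA and 0.03% Triton X-100. Binding intensity, obtained after Alexa488 anti-GST antibody detection and a 488 nm scan, is the highest Masliner-normalised natural-log median intensity across replicate spots of either probe orientation.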
row,Sequence,gcPBM binding intensity (ln)
1,ATATGTATAAGTATGTATATTTATTTATACTTATGT [GTGCAC_negctrl_site221],9.26
2,AAAAAAAAAAAAAAAAGTACATATATATATTTATAT [XGTACX_site5893],9.15
3,TTTTAAATTTAATTTACACACTTTTCATAGCATTGA [CACACA_site3794],9.23
4,TTCTATTCACATTTTACACACGTCCATCGCATTTTA [CACACA_site3453],9.89
5,TATATATATGGTTTAACACACGAGATAAAAGTATAT [CACACA_site2867],9.63
6,TTATATTTATAAAATTGTATACCCCTTCTAACTTTC [CACACA_negctrl_site250],9.06
7,ATTGTGCTCATCAGCACACACAACATCATGTAATAA [CACACA_site1863],9.47
8,TATATGGTATGTATTACACACATATCACATATAGAT [CACACA_site7426],9.45
9,AAATGTAATTTGTCTTTTATTTATATTTGACATGAT [TGCATGCA_negctrl_site520],9.11
10,ATATTAATGATATATACACACATAAGTATTGTATAT [CACACA_site7844],9.45
11,AAAAATTATAAAAAACAAATATTAAATAATTATTAA [GTGCAC_negctrl_site125],9.07
12,TTGATGGGAAAAAACTTTTTTTTCTTTTTTTCTTTC [CACACA_negctrl_site328],8.84
13,AAAAGGAAGATATATACACACATACAAATATTTATA [CACACA_site7093],9.79
14,TATCACCCACCATGAAGTACATATTACCATTTGATG [XGTACX_site845],9.46
15,ATAAATAAATAAAAGCGTACATATATATAAAATATA [XGTACX_site8107],9.39
16,TTATACTAAATGAACACACACACATATATATATATA [CACACA_site99],9.81
17,AGAGTTAAACGATATATATAAATATATATATATATA [GTGCAC_negctrl_site316],9.06
18,AAAAAAAAAAACGACAGTACAATTATAATTTATATT [XGTACX_site2365],9.32
19,AGATCATAATATTATACACACATTAGATATAGGTAA [CACACA_site6809],9.67
20,ATGTCTTAAAAATTAAAACACACGTTCACTTTCATA [CACACA_site3385],9.22
21,TGGTGAAAAATATAAATATAAATAAATATATATATA [CACACA_negctrl_site1725],9.02
22,AGAAGAAAACAAAACACACACATATATCTTAATATA [CACACA_site2231],9.9
23,AAAAAAAAAAACTTTGCATGTAATAATAAAAAAAAA [TGCATGCA_site81],9.08

row,Sequence,gcPBM binding intensity (ln)
1,ATGATCTGTTTGTTTGTGCACATATATATATATTAA,9.61
2,TTTATATTTTTTTTTGCACACTTTAAAAAAATATAT [CACACA_site1146],9.22
3,TATATATTACATAAAACACACAAAAAAAAAATTAAA [CACACA_site3882],9.58
4,AAATAAATTGAAGATACATGCATATTTTTTTTTTAT [TGCATGCA_site686],9.11
5,GAATATTTATGATGAACTATTAATTAATTTTACATA [GTGCAC_negctrl_site353],8.91
6,ATGTAGAGTAATAGTTGTACAAGGTGTATATCTCAT [XGTACX_site6370],9.56
7,AATTAAATGTTTCTAAGATATACGACCAATGTATTT [CACACA_negctrl_site1694],9.06
8,AATTAATGGGTACATACACACATATATACATACATA [CACACA_site742],9.63
9,CATCAATGCTAATTATGTACTTACATAAATAACCCT [XGTACX_site968],9.2
10,ATACCTAAAAAATATACACACATATATATAAATATA [CACACA_site2580],9.67
11,TGTATTATCTCTTATGAACACACATTTTTATTTTCA [CACACA_site9107],9.51
12,ATGTTAATTAATGAGGTGCATTGAATATTTCAATAA,9
13,ATAAATAAAACAACAGTGCAATAAAATTAGTTGAGG,9.62
14,TGGTAATACCCATACACACACACATACCCATATATA [CACACA_site5509],10.1
15,TTTTTTATGAGGTGGTGTACTTTTTTTTTTTTCTTT [XGTACX_site8550],9.46
16,CAAGAAACAGTGATACGTACACATATATATATATAT [XGTACX_site3229],9.6
17,ATTAAAGAGAGACATCAACACACATACGTATGTATA [CACACA_site8393],9.54
18,TTCAAATAAATAGTAGTGCATATTTATTAATGTAAA,9.1
19,TAATATATTATAAACACATGCACATTAATAATAACT [TGCATGCA_site708],9.44
20,TATTTTTTAAAAAAACGTACAAACATAATAAAAATA [XGTACX_site1857],9.25
21,ATATGAAACATGAAGGTGCATAATGTGTATATTTAT,9.46
22,ACATAAATATATTTTTCACACATCATTAGTTATGAA [CACACA_site4724],9.28
23,TATATATATATATATGTGCACATTTTATTAAAATGT,9.19

row,Sequence,gcPBM binding intensity (ln)
1,ATAGACATTTTACTTTGTACATATAAACATATATAT [XGTACX_site2733],9.25
2,AAACTATACCAAAACACACATACAAAATATAAAAAA [CACACA_site2707],9.81
3,ATTTTCAAATTATCAGATGAATCTTTTTAAGATCTT [XGTACX_negctrl_site598],8.68
4,CTCATATATAACACATGTACACAGATTTTGCAAATG [XGTACX_site6879],9.32
5,GGGAAAAAATGAGGTCGTACATTTTTCATCACAAAT [XGTACX_site8920],9.2
6,TTTTTTTTTTTTTTTTTACACACTGCATACAAGAAA [CACACA_site3026],8.95
7,GTCTGCATATGGATACGTACACATATATATTAATGT [XGTACX_site2260],9.48
8,AATGAATGTACATACGCATGTACTTGACTAAATTAT [TGCATGCA_site436],9.23
9,TATATAATACGAATTTGTACATATTAAATAAATTAT [XGTACX_site93],9.11
10,GTTAGTTTTAGTTCATGTACATAATAGAAAATATAT [XGTACX_site7125],9.2
11,AAGGTATGATTAATCACACACATAAATATAAATACA [CACACA_site5464],9.56
12,AAGCTTCATTAATATACACACATATATGTGTATATT [CACACA_site7693],9.55
13,AATAAAGAAGAAGAAAGTACACATTTCACAAAGGGG [XGTACX_site1308],9.54
14,GATATATGTATAATAACGCACACTACAAAAATAAAA [CACACA_site2100],9.55
15,ATAAAATATAGGTATGCACACACATATACTTCTGTG [CACACA_site8398],9.66
16,ATATATATATATATATGTACATATTTTTTATTTTAT [XGTACX_site5761],9.19
17,TATTATTCAAATAAAAGAAAAATATATATATTATAT [GTGCAC_negctrl_site273],8.98
18,ATATGTTACTTTACATAAAGAAGAAGAAGAAGAAAA [CACACA_negctrl_site985],9.07
19,TTTCAAAAAGGAAGAAAAAAAAAAAAAAAAAATATA [XGTACX_negctrl_site514],9.01
20,TCCCCCTTTTTTTGATTTTTATCTTAATTCTAAAAG [GTGCAC_negctrl_site541],9.24
21,AAAAAAAAAAAAAACACACACACACCCAAATACATA [CACACA_site708],9.87
22,TTTTTTCTTTTCAAGGTGCTTTATAAGAAAAAGGGA [GTGCAC_site9858],8.59
23,TATATTAAAACAAGCACACAATCGCATAATATCCTT [CACACA_site3210],9.65

row,Sequence,gcPBM binding intensity (ln)
1,TATTTTATCATTTGCACACGCACACCCACATAAAAA [CACACA_site354],9.56
2,AGTATTATATTTTCTTGTACACATGTAAAATACCTC [XGTACX_site1359],9.32
3,AAAAAAAAAAAAAAAACACACATATATGTATATATA [CACACA_site3276],9.3
4,ATGTTATATTTTTTTATACACACTGGAATATATAAA [CACACA_site215],9.37
5,TATATATATATATATTGTACTTTATTTTATATATTC [XGTACX_site5697],9.26
6,ATTTATAATGAGTATACACACATATATAGATTTGCT [CACACA_site4517],9.49
7,ATTATTATTGTCAAATGTACAAGCTAATAATTTTTA [XGTACX_site7167],8.91
8,CAACAACATTTTTCATGTACATATATTTTATAATAT [XGTACX_site519],9.26
9,AAAAAAAAAAAAAACATACACACAAGAACAAAATAT [CACACA_site3003],10.2
10,TTTTTTTTTTGTAATACACACCACTATATGTTATTT [CACACA_site5087],9.68
11,AAACATTTAAATGGAAACACAGAAAAATGAAAAATG [CACACA_negctrl_site457],9.59
12,ATATATATATATACATGTACATATATACATTATATT [XGTACX_site936],9.19
13,ATATATTTTCATTTTACACACAAATAAAGATAATTT [CACACA_site2996],9.4
14,AAAATAAATAAAAAAAGTACATATATAATTTATAAA [XGTACX_site2411],9.32
15,TCTTGATACAAACATTTAAATAAATAAATAAAAAAA [GTGCAC_negctrl_site41],8.96
16,TGTTGTGATATATTAAAATCGTCCCTTATAATTTTA [GTGCAC_negctrl_site595],9.26
17,TAATATTATATTTATAGTACATATAATATATATATA [XGTACX_site2964],8.93
18,AAAATACACGCATACACACACACACCGACACATATA [CACACA_site4523],10.2
19,AAACACACACACAAATGTACATATATATATATATTT [XGTACX_site5090],9.74
20,GAACACTAATAATGTTGTACACGTAATTATATATTT [XGTACX_site777],9.35
